Experimental data reported in PMC10429771, “Bioorthogonal activation of prodrugs, for the potential treatment of breast cancer, using the Staudinger reaction” (RSC Medicinal Chemistry, 2023).

Assay: HPLC release study (Staudinger activation by 9-azido sialic acid 4)
Settings: prodrug 50 μM + 9-azido sialic acid 4 100 μM, CH3CN/H2O (1:1), 37 °C, monitored for 30 hours

Compound: O=C(Nc1ccc(N(CCCl)CCCl)cc1)c1ccccc1P(c1ccccc1)c1ccccc1 [N-mustard prodrug 10, N-(4-(Bis(2-chloroethyl)amino)phenyl)-2-(diphenylphosphaneyl)benzamide]
- time to full disappearance of prodrug HPLC signal: 24 h

Compound: COc1cccc2c1C(=O)c1c(O)c3c(c(O)c1C2=O)C[C@@](O)(C(=O)CO)C[C@@H]3OC1C[C@@H](NC(=O)c2ccccc2P(c2ccccc2)c2ccccc2)[C@@H](O)[C@@H](C)O1 (stereo partly drawn) [Dox-prodrug 12, 2-(Diphenylphosphino)-N-((2R,3R,4R)-3-hydroxy-2-methyl-6-(((1S,3S)-3,5,12-trihydroxy-3-(2-hydroxyacetyl)-10-methoxy-6,11-dioxo-1,2,3,4,6,11-hexahydrotetracen-1-yl)oxy)tetrahydro-2H-pyran-4-yl)benzamide]
- time to full disappearance of prodrug HPLC signal: 24 h
